According to patent US20240383974A1 (BETTA PHARMACEUTICALS, published 2024):

T1: GARP (CHO-K1-GARP cell line that overexpresses GARP) (UniProt Q14392 20-662, limits assumed)
T1 construct: whole, on cells; also called GARP protein
T1 sequence (looked up): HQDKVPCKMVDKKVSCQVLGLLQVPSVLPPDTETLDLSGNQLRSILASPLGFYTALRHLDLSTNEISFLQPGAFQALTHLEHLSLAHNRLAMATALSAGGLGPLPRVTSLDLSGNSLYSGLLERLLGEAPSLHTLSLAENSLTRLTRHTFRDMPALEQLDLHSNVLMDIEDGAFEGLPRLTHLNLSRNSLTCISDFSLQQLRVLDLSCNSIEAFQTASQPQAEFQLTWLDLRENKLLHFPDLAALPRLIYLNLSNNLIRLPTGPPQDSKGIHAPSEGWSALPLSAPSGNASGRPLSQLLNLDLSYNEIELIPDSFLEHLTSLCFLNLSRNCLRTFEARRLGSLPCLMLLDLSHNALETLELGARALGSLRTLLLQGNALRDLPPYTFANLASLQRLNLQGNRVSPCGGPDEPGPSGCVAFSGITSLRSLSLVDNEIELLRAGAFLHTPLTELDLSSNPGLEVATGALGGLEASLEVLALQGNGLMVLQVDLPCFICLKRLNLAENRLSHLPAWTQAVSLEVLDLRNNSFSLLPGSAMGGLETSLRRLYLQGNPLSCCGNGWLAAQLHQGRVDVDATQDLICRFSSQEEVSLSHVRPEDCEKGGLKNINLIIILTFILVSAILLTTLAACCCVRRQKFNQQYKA


Legend:
[1] = target: T2, GARP-TGF-β complex (293-GARP/TGFβ stably transfected cells) (UniProt Q14392 20-662; P01137 30-390); test: cell-based or functional assay
human PD-L1 [2] = target: T3, human PD-L1 (human, UniProt Q9NZQ7); test: cell-based or functional assay
[3] = target: T1, GARP (CHO-K1-GARP cell line that …); test: FACS on CHO-K1-GARP cells
human PD-L1 [4] = target: T3, human PD-L1; test: FACS on MC38-hPD-L1 cells
T3 sequence (Q9NZQ7 19-290): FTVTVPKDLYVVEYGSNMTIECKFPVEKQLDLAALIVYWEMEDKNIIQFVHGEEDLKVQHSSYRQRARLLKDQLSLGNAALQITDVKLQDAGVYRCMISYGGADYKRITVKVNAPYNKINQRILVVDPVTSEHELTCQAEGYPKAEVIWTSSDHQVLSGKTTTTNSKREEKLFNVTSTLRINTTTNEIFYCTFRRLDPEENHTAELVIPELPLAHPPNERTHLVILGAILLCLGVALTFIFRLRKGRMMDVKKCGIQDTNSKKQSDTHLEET

[5] = target: T2, GARP-TGF-β complex (293-GARP/TGFβ …); test: FACS on 293-GARP/TGFβ cells

Row | Binder | IC50(nM), TGFβ reporter gene blocking (293F-GAPR/TGFβ/αvβ6 cells with 293-SBE-Luciferase cells) [1] | IC50(nM), PD-1/PD-L1 NFAT-luciferase reporter (293T-hPD-L1 with Jurkat-PD1-CD3zeta-NFAT-Luc2 cells) (human PD-L1 [2]) | EC50 [3] | EC50 (human PD-L1 [4]) | EC50 [5]
1 | b301-H-D2hu (bispecific antibody, human IgG1, kappa, also called b301-hu-H-D2hu) heavy: QVQLQESGPGLVKPSGTLSLTCAVSGFSLTTYGVTWVRQPPGKGLEWIGLIWGDGTTDYHSTFISRLTISKDKSKNQVSLKLSSVTAADTAVYYCASYYFAMHYWGQGTLVTVSS[letters of human IgG1 constant region omitted]GGGGSGGGGSGGGGSGGGGSEVQLVESGGGLVQPGGSLRLSCAASGRDFLTYGMGWFRQAPGKGLEFVASINWSGSMTYYADSVKGRFTISRDNAKNSVYLQMNSLRAEDTAVYICAARRGAVTYASSNEYEHWGQGTQVTVSS light: DIVMTQSPDSLAVSLGERATINCKSSQSLLNSRTQKNYLAWYQQKPGQSPKLLIYWASTRESGVPDRFSGSGSGTDFTLTISSLQAEDVAVYYCKQSYNLWTFGGGTKVEIKRTVAAPSVFIFPPSDEQLKSGTASVVCLLNNFYPREAKVQWKVDNALQSGNSQESVTEQDSKDSTYSLSSTLTLSKADYEKHKVYACEVTHQGLSSPVTKSFNRGEC | 4.2 nM | 11 nM | – | 0.34 nM | 7.3 nM
2 | b212-L-D2hu (bispecific antibody) heavy: QVQLVQSGAEVKKPGSSVKVSCKASGYIFTSYWMHWVKQAPGQGLEWIGRIAPNSGGAHYHEKFKTKVTITADKSTSTAYMEFSSLRSEDTAVYYCARGNYGMDYWGQGTAVTVSS[letters of human IgG1 constant region omitted] light: DIQMTQSPSSLSASVGDRVTITCRASQDISNYLNWYQQKPGGAPELLIYYTSTLHSGVPSRFSGSGSGTDYTLTISSLQPEDFATYFCQQVNTLPFTFGSGTKLEIKRTVAAPSVFIFPPSDEQLKSGTASVVCLLNNFYPREAKVQWKVDNALQSGNSQESVTEQDSKDSTYSLSSTLTLSKADYEKHKVYACEVTHQGLSSPVTKSFNRGECGGGGSGGGGSGGGGSGGGGSEVQLVESGGGLVQPGGSLRLSCAASGRDFLTYGMGWFRQAPGKGLEFVASINWSGSMTYYADSVKGRFTISRDNAKNSVYLQMNSLRAEDTAVYICAARRGAVTYASSNEYEHWGQGTQVTVSS | – | 8.2 nM | 1.9 nM | 0.39 nM | 7.7 nM
3 | b301-L-Bhu (bispecific antibody, human IgG1, kappa) heavy: QVQLQESGPGLVKPSGTLSLTCAVSGFSLTTYGVTWVRQPPGKGLEWIGLIWGDGTTDYHSTFISRLTISKDKSKNQVSLKLSSVTAADTAVYYCASYYFAMHYWGQGTLVTVSS[letters of human IgG1 constant region omitted] light: DIVMTQSPDSLAVSLGERATINCKSSQSLLNSRTQKNYLAWYQQKPGQSPKLLIYWASTRESGVPDRFSGSGSGTDFTLTISSLQAEDVAVYYCKQSYNLWTFGGGTKVEIKRTVAAPSVFIFPPSDEQLKSGTASVVCLLNNFYPREAKVQWKVDNALQSGNSQESVTEQDSKDSTYSLSSTLTLSKADYEKHKVYACEVTHQGLSSPVTKSFNRGECGGGGSGGGGSGGGGSGGGGSQVQLVESGGGVVQPGGSLRLSCAASGFTFSSYAMRWVRQAPGKGLEWVAGINTGSEIVVYANSVRGRFTISRDNSRDTLYLQMNSLRAEDTAVYYCATGLVSAEHDGIWGQGTQVTVSS | – | – | – | – | 4.4 nM

Second part, the binder after the results:

Row | IC50(nM), TGFβ reporter gene blocking (293F-GAPR/TGFβ/αvβ6 cells with 293-SBE-Luciferase cells) [1] | IC50(nM), PD-1/PD-L1 NFAT-luciferase reporter (293T-hPD-L1 with Jurkat-PD1-CD3zeta-NFAT-Luc2 cells) (human PD-L1 [2]) | EC50 [3] | EC50 (human PD-L1 [4]) | EC50 [5] | Binder
4 | 0.38 nM | 8.7 nM | 2.2 nM | 0.46 nM | 7.7 nM | b212-hu-H-D2hu (bispecific antibody, human IgG1, kappa) heavy: QVQLVQSGAEVKKPGSSVKVSCKASGYIFTSYWMHWVKQAPGQGLEWIGRIAPNSGGAHYHEKFKTKVTITADKSTSTAYMEFSSLRSEDTAVYYCARGNYGMDYWGQGTAVTVSS[letters of human IgG1 constant region omitted]GGGGSGGGGSGGGGSGGGGSEVQLVESGGGLVQPGGSLRLSCAASGRDFLTYGMGWFRQAPGKGLEFVASINWSGSMTYYADSVKGRFTISRDNAKNSVYLQMNSLRAEDTAVYICAARRGAVTYASSNEYEHWGQGTQVTVSS light: DIQMTQSPSSLSASVGDRVTITCRASQDISNYLNWYQQKPGGAPELLIYYTSTLHSGVPSRFSGSGSGTDYTLTISSLQPEDFATYFCQQVNTLPFTFGSGTKLEIKRTVAAPSVFIFPPSDEQLKSGTASVVCLLNNFYPREAKVQWKVDNALQSGNSQESVTEQDSKDSTYSLSSTLTLSKADYEKHKVYACEVTHQGLSSPVTKSFNRGEC
5 | – | – | – | – | 1.3 nM | b301-H-Bhu-D2hu (bispecific antibody, human IgG1, kappa) heavy: QVQLQESGPGLVKPSGTLSLTCAVSGFSLTTYGVTWVRQPPGKGLEWIGLIWGDGTTDYHSTFISRLTISKDKSKNQVSLKLSSVTAADTAVYYCASYYFAMHYWGQGTLVTVSS[letters of human IgG1 constant region omitted]GGGGSGGGGSGGGGSGGGGSQVQLVESGGGVVQPGGSLRLSCAASGFTFSSYAMRWVRQAPGKGLEWVAGINTGSEIVVYANSVRGRFTISRDNSRDTLYLQMNSLRAEDTAVYYCATGLVSAEHDGIWGQGTQVTVSSGGGGSGGGGSGGGGSEVQLVESGGGLVQPGGSLRLSCAASGRDFLTYGMGWFRQAPGKGLEFVASINWSGSMTYYADSVKGRFTISRDNAKNSVYLQMNSLRAEDTAVYICAARRGAVTYASSNEYEHWGQGTQVTVSS light: DIVMTQSPDSLAVSLGERATINCKSSQSLLNSRTQKNYLAWYQQKPGQSPKLLIYWASTRESGVPDRFSGSGSGTDFTLTISSLQAEDVAVYYCKQSYNLWTFGGGTKVEIKRTVAAPSVFIFPPSDEQLKSGTASVVCLLNNFYPREAKVQWKVDNALQSGNSQESVTEQDSKDSTYSLSSTLTLSKADYEKHKVYACEVTHQGLSSPVTKSFNRGEC
6 | – | – | 2 nM | 0.59 nM | 1.9 nM | b212-L-Bhu (bispecific antibody) heavy: QVQLVQSGAEVKKPGSSVKVSCKASGYIFTSYWMHWVKQAPGQGLEWIGRIAPNSGGAHYHEKFKTKVTITADKSTSTAYMEFSSLRSEDTAVYYCARGNYGMDYWGQGTAVTVSS[letters of human IgG1 constant region omitted] light: DIQMTQSPSSLSASVGDRVTITCRASQDISNYLNWYQQKPGGAPELLIYYTSTLHSGVPSRFSGSGSGTDYTLTISSLQPEDFATYFCQQVNTLPFTFGSGTKLEIKRTVAAPSVFIFPPSDEQLKSGTASVVCLLNNFYPREAKVQWKVDNALQSGNSQESVTEQDSKDSTYSLSSTLTLSKADYEKHKVYACEVTHQGLSSPVTKSFNRGECGGGGSGGGGSGGGGSGGGGSQVQLVESGGGVVQPGGSLRLSCAASGFTFSSYAMRWVRQAPGKGLEWVAGINTGSEIVVYANSVRGRFTISRDNSRDTLYLQMNSLRAEDTAVYYCATGLVSAEHDGIWGQGTQVTVSS
7 | 8.4 nM | 10 nM | – | 0.52 nM | 11 nM | b301-L-D2hu (bispecific antibody, human IgG1, kappa) heavy: QVQLQESGPGLVKPSGTLSLTCAVSGFSLTTYGVTWVRQPPGKGLEWIGLIWGDGTTDYHSTFISRLTISKDKSKNQVSLKLSSVTAADTAVYYCASYYFAMHYWGQGTLVTVSS[letters of human IgG1 constant region omitted] light: DIVMTQSPDSLAVSLGERATINCKSSQSLLNSRTQKNYLAWYQQKPGQSPKLLIYWASTRESGVPDRFSGSGSGTDFTLTISSLQAEDVAVYYCKQSYNLWTFGGGTKVEIKRTVAAPSVFIFPPSDEQLKSGTASVVCLLNNFYPREAKVQWKVDNALQSGNSQESVTEQDSKDSTYSLSSTLTLSKADYEKHKVYACEVTHQGLSSPVTKSFNRGECGGGGSGGGGSGGGGSGGGGSEVQLVESGGGLVQPGGSLRLSCAASGRDFLTYGMGWFRQAPGKGLEFVASINWSGSMTYYADSVKGRFTISRDNAKNSVYLQMNSLRAEDTAVYICAARRGAVTYASSNEYEHWGQGTQVTVSS
